Measurements as given in patent US7235366B1 (priority 1993, dated 2007).

Biological target: human μ receptor (Homo sapiens, UniProt P35372)
Sequence (P35372 whole entry): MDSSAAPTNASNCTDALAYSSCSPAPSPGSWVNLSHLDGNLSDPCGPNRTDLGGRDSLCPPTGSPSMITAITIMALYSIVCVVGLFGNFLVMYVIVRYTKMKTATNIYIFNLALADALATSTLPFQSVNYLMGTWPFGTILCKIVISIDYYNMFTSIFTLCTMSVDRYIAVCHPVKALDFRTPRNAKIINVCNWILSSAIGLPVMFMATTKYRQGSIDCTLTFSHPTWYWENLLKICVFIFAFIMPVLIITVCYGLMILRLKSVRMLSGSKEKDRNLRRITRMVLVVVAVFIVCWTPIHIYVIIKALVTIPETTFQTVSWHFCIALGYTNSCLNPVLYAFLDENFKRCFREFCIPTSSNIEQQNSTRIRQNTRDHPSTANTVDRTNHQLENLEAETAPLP

In the case of Leu-enkephalin, the “Effect on forskolin-stimulated cAMP accumulation, human μ receptor” value is reported as “significantly reduced”.
In the case of `CN1CC[C@]23CCCC[C@H]2[C@H]1Cc1ccc(O)cc13` [Levorphanol], the “Effect on forskolin-stimulated cAMP accumulation, human μ receptor” value is reported as “decreased cAMP accumulation”.
